We go through three substances from patent publication US9995734B2, “Human T cell line assay for evaluating the immunologic identity of glatiramer acetate preparations” (Mylan Inc., priority 2013, dated 2018).

The test system of the assay is Donor 3 T-cell cultures. As to the kind of experiment: BrdU uptake proliferation screen, Donor 3 cultures initiated with 100 μg/mL COP or GMA. To be noted: for GA-specific reactivity, BrdU uptake: Donor 3 cultures initiated and stimulated with 100 μg/mL, Day 13.

glatiramer acetate [COP]: the “GA-specific reactivity, BrdU uptake” value is “None of the lines tested showed GA-specific reactivity”.
In the case of glatiramer acetate [GMA], the “GA-specific reactivity, BrdU uptake” value was “None of the lines tested showed GA-specific reactivity”.
Consider “L-glutamic acid polymer with L-alanine, L-lysine and L-tyrosine, acetate (salt) [GA]”, for which, where the note is “10 and 30 μg/mL versus 100 μg/mL GA”, the “GA titration: proliferative and cytokine responses” value is “better proliferative and cytokine responses at 10 and 30 μg/mL GA than at 100 μg/mL GA”.
